The text below walks through data of article PMC2783589 (Biochemistry, 2009).

The target of one series is CpaD (CpaD_Ao) (Aspergillus oryzae, UniProt F5HN73). The following applies: read-out: Kinetic profile / Km; DMAPP, 50 mM Tris-HCl pH 7.5, 30 °C.
For series [1], the system named is CC(=O)C1C(=O)N[C@@H](Cc2c[nH]c3ccccc23)C1=O. As to the kind of experiment: purified protein. The following applies: 250 μM DMAPP, 50 mM Tris-HCl pH 7.5, 30 °C, no divalent metal.
The test system of series [2] is O=C1CNC(=O)[C@H](Cc2c[nH]c3ccccc23)N1. As to the kind of experiment: purified protein. The following applies: DMAPP, 50 mM Tris-HCl pH 7.5, 30 °C.
For series [3], the system named is O=C1N[C@@H](Cc2c[nH]c3ccccc23)C(=O)N[C@H]1Cc1ccc(O)cc1. As to the kind of experiment: purified protein. To be noted: DMAPP, 50 mM Tris-HCl pH 7.5, 30 °C.
Series [4] deals with CC(=O)C1C(=O)N[C@@H](Cc2ccc(O)cc2)C1=O. As to the kind of experiment: purified protein. The following applies: DMAPP, 50 mM Tris-HCl pH 7.5, 30 °C, O-dimethylallylation.
In series [5] the test system is CC(=O)C1C(=O)N[C@H](Cc2c[nH]c3ccccc23)C1=O. Kind of series: purified protein. To be noted: 250 μM DMAPP, 50 mM Tris-HCl pH 7.5, 30 °C, no divalent metal.
In series [6] the test system is O=C1N[C@@H](Cc2c[nH]c3ccccc23)C(=O)N[C@H]1Cc1ccccc1. As to the kind of experiment: purified protein. The following applies: DMAPP, 50 mM Tris-HCl pH 7.5, 30 °C.
The test system of series [7] is O=C1N[C@@H](Cc2c[nH]c3ccccc23)C(=O)N[C@H]1Cc1c[nH]c2ccccc12. Kind of series: purified protein. To be noted: DMAPP, 50 mM Tris-HCl pH 7.5, 30 °C.

Sequence of CpaD (CpaD_Ao) (F5HN73 whole entry, looked up): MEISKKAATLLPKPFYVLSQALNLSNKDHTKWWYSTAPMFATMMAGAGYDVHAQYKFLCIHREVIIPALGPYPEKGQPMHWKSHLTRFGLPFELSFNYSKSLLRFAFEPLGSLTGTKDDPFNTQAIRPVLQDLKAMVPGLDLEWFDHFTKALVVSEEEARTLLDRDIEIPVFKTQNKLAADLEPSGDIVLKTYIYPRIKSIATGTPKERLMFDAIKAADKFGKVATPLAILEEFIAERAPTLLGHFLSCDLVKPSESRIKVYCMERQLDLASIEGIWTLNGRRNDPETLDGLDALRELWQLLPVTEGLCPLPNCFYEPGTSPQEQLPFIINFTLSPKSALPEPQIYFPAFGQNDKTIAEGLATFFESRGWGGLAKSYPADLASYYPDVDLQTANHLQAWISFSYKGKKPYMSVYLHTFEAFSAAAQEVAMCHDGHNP

On to `O=C1N[C@@H](Cc2c[nH]c3ccccc23)C(=O)N2CCC[C@@H]12` [compound 8, DKP L-Trp-L-Pro 8], for which, at CpaD (CpaD_Ao), the Km turned out to be 756 ± 52 µM.
CpaD (CpaD_Ao) (Aspergillus oryzae): the Km in series [1] worked out at 109 ± 16 µM; in series [2] it was 712 ± 38 µM; in series [3] it was 526 ± 34 µM; in series [4], 368 µM; in series [5], 382 ± 29 µM; in series [6] it was 546 ± 42 µM. The Km in series [7] amounted to 638 ± 46 µM. For the same compound, the kcat – broadly, the maximal rate divided by the concentration of active sites – was determined as 0.883 ± 0.2 s⁻¹ in series [1]; 0.003 ± 0.000667 s⁻¹ in series [2]; 0.00533 ± 0.00133 s⁻¹ in series [3]; 0.00867 s⁻¹ in series [4]; 0.137 ± 0.0317 s⁻¹ in series [5]; 0.00483 ± 0.001 s⁻¹ in series [6]. Also, in series [7], the kcat is 0.0035 ± 0.000833 s⁻¹. For the same compound, the kcat/Km (as a rule, the second-order rate constant that governs catalysis at low substrate concentration) in series [1] came out at 8100 M⁻¹ s⁻¹; in series [2], 4.23 M⁻¹ s⁻¹; in series [3], 10.1 M⁻¹ s⁻¹; in series [5], 350 M⁻¹ s⁻¹; in series [6], 8.85 M⁻¹ s⁻¹; in series [7], 5.48 M⁻¹ s⁻¹.
